# About 5,700 (2.6%) of roughly 220,000 compounds were called active. The inconclusive results got no clear call from the source; some entries with a clear call stand among them for comparison. The call rests on the fitted dose curve; in most records, active means well fitted inhibition curve with a large enough effect; inconclusive means small, poorly fitted or top-dose-only effect; inactive means no such curve, though single readings can be large or run the other way. A potency beside an inconclusive call is a rough fit, not a confirmed value.
# Target: Lysine-specific demethylase 5B (Homo sapiens) (UniProt Q9UGL1)
# UniProt Q9UGL1, sequence (Q9UGL1 whole entry, looked up): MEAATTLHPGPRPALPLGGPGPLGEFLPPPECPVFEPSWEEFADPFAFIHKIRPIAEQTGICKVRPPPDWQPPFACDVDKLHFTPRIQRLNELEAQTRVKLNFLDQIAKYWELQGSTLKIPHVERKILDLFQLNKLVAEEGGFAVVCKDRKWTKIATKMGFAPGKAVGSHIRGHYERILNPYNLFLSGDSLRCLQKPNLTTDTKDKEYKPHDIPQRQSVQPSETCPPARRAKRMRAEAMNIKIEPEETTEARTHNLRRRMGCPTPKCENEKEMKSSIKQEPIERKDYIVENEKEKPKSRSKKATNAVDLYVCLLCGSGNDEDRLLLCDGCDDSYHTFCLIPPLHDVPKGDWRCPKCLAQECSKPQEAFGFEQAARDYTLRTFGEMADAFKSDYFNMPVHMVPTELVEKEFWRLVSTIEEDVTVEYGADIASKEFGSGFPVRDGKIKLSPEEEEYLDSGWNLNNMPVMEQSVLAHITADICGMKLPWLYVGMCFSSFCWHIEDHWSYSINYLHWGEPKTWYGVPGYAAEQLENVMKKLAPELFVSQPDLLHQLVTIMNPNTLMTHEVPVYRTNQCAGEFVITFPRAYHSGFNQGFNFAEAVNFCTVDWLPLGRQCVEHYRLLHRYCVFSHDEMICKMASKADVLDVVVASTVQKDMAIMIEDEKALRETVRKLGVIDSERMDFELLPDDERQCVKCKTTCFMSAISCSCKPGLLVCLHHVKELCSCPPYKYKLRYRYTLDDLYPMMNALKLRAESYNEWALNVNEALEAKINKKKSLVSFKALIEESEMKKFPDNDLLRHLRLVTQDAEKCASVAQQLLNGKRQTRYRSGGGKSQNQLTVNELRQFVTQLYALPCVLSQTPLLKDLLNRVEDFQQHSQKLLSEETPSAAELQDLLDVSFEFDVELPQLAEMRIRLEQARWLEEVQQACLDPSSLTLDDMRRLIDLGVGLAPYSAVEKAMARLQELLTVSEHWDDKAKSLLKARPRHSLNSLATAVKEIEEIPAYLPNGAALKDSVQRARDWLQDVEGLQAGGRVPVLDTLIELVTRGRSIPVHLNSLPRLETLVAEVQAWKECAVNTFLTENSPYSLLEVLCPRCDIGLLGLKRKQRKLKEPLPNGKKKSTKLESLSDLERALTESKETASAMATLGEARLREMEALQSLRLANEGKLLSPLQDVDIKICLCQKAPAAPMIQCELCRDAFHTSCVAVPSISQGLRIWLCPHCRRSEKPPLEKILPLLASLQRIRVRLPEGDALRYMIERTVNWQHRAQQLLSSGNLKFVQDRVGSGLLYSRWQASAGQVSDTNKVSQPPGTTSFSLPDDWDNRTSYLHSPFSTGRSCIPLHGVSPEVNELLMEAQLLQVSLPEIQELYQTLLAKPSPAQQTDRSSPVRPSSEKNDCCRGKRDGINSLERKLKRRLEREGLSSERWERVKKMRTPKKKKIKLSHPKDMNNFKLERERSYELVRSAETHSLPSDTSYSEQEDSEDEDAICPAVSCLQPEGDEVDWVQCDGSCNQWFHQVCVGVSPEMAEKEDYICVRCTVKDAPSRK
# Experiment: Primary screen for KDM5B Histone Demethylases FDH-coupled qHTS; further: nearly all actives have a fitted effect of over 70% in size
# Details: FDH-coupled NADH fluorescence (FDH is formaldehyde dehydrogenase); series mostly up to 57.7 µM
# Summary of the method: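 Inhibition is measured as reduced NADH fluorescence generation from FDH coupling to formaldehyde release. Truncated KDM5BΔAP at 200 nM final acts on H3K4me3 peptide (12.5 µM in substrate mix) in pH 7.5 HEPES buffer with Tween-20, 30 min, room temperature.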
# Potency means the concentration at half of the fitted maximal effect; tags describe the fitted curve by direction and shape.
row,Compound,Potency
1,Cc1noc(C)c1CC(=O)N1CC(=O)N(C2CCCCC2)CC(OCc2ccccc2)C1 (stereo not given),inactive
2,CC(C)c1nnc2ccc(N3CCC(C(=O)O)CC3)nn12,inactive
3,O=C(NCc1cccs1)c1ccc2c(c1)n(Cc1cccc(F)c1)c(=O)c1ccnn12,active: 28.2 µM
4,Cc1ccccc1-n1c(C)c(C)c2c1ncn1nc(-c3cccnc3)nc21,inactive
5,CCOc1ccccc1NC(=O)Cn1nnc(C(=O)Nc2ccc(C)c(C)c2)c1N,"inconclusive: 25.1 µM [inhibitor, partial curve, poor fit]"
6,Cc1ccc(N2CCN(C(=O)c3ccc4c(c3)N(C)C3CCCCCN3C4=O)CC2)cc1 (stereo not given),"inconclusive: 28.2 µM [inhibitor, partial curve, poor fit]"
7,CC(=O)N1CCC(Oc2ccccc2-c2nc(-c3ccccc3)no2)C1 (stereo not given),"inconclusive: 28.2 µM [inhibitor, partial curve, poor fit]"
8,Cn1nccc1C(=O)NCc1ccc2c(c1)CCN2C(=O)c1ccccc1,inactive
9,COc1ccc(N(Cc2cc3ccccc3[nH]c2=O)S(C)(=O)=O)cc1,inactive
10,O=C(O)c1cc(-c2cccc(CO)c2)cc(S(=O)(=O)N2CCOCC2)c1,inactive
11,CC1=C[C@@H](CNC(=O)NC(C)C)[C@H](C(C)C)C[C@H]1Cc1nnc(-c2ccncc2)o1,"inconclusive: 39.8 µM [inhibitor, partial curve, poor fit]"
12,COc1ccc(CN2Cc3[nH]cnc3C[C@H]2C(=O)NCc2ccc(C#N)cc2)c2ccccc12,"inconclusive: 31.6 µM [inhibitor, partial curve, poor fit]"
13,COc1ccccc1CNC(=O)c1cnn2c(C)c(Cc3ccc(F)cc3)c(C)nc12,"inconclusive: 5.62 µM [inhibitor, partial curve, poor fit]"
14,Cc1ccc(C(c2sc3nc(-c4ccco4)nn3c2O)N2CCN(Cc3ccccc3)CC2)cc1 (stereo not given),"inconclusive: 25.1 µM [inhibitor, partial curve, poor fit]"
15,O=C(NCc1ccco1)c1cc2n(n1)CC(c1ccc3c(c1)OCO3)OC2 (stereo not given),"inconclusive: 15.8 µM [inhibitor, partial curve, poor fit]"
16,O=C(c1ccc(F)cc1)N1Cc2[nH]cnc2C[C@H]1c1nc(-c2ccc(Cl)cc2)no1,inactive
17,C=CCNc1ccccc1C(=O)NC(C(=O)O)c1c(C)n[nH]c1C (stereo not given),active: 28.2 µM
18,Cc1ccc(-c2cc(C(=O)NCC(c3ccccc3)N(C)C)c3ccccc3n2)o1 (stereo not given),"inconclusive: 25.1 µM [inhibitor, partial curve, poor fit]"
19,CCOc1ccc2c(n1)CCN(C(=O)CCC1CCCC1)C2,inactive
20,Cc1ccc2cc(C(=O)N3CCN(S(=O)(=O)c4cccs4)CC3)[nH]c2c1,inactive
21,Cc1nccc(-c2sc(-c3cccs3)nc2C)n1,"inconclusive: 22.4 µM [inhibitor, partial curve, poor fit]"
22,Nc1cc(S(=O)(=O)O)ccc1S(=O)(=O)O,"inconclusive: 39.8 µM [inhibitor, single point]"
23,CCCCC(NS(=O)(=O)Cc1ccccc1)C(=O)O (stereo not given),inactive

row,Compound,Potency
1,CC(C)CCNc1ccc2nncn2n1,"inconclusive: 35.5 µM [inhibitor, partial curve, poor fit]"
2,CCOC(=O)C1(Cc2ccc(OC)cc2)CCNCC1,inactive
3,CCC(=O)Oc1ccc2c(=O)c(-c3nc4ccccc4s3)c(C)oc2c1,inactive
4,CCCCn1c(=O)[nH]c(=O)c2c1nc(CSc1nnnn1C1CC1)n2C,inactive
5,CCc1nc(CN(C)C(C(=O)O)c2ccc(C(C)(C)C#N)cc2)no1 (stereo not given),inactive
6,O=C(Cn1cnc2sccc2c1=O)N1N=C(c2ccc(Cl)cc2)CC1c1ccco1 (stereo not given),"inconclusive: 28.2 µM [inhibitor, partial curve, poor fit]"
7,CN1Cc2cccn2CC1CNC(=O)Cc1ccccc1 (stereo not given),active: 17.8 µM
8,Cc1ccc2nc([C@H]3CCN(Cc4ccccn4)C3)[nH]c2c1,"inconclusive: 35.5 µM [inhibitor, single point]"
9,Cc1cccc(-n2nc(-c3c(C)nc4scc(CC(=O)NCc5ccccc5)n4c3=O)cc2C)c1,"inconclusive: 14.1 µM [inhibitor, partial curve, poor fit]"
10,O=C(O)CNC(=O)Cn1ccc2ccc(OCc3ccccc3)cc21,inactive
11,CCCCCCCCOc1ccc(OC(=O)/C=C/c2ccc(OC)cc2)cc1,inactive
12,O=C(O)C/C(=C/c1ccc(OC(F)F)cc1)c1nc2ccccc2s1,"inconclusive: 28.2 µM [inhibitor, partial curve, poor fit]"
13,O=C(CNCCc1ccc(Cl)cc1)Nc1ccc(C(=O)N2CCCCC2)cc1,"inconclusive: 3.98 µM [inhibitor, full curve, poor fit]"
14,CCOC(=O)Cn1c(=O)n(-c2ccccc2OC)c2nc(-c3ccccc3C)nc(C(N)=O)c21,"inconclusive: 22.4 µM [inhibitor, single point]"
15,CN(C)c1cccc(NC(=O)Cc2c[nH]c3ncc(-c4cnn(C)c4)cc23)c1,"inconclusive: 31.6 µM [inhibitor, partial curve, poor fit]"
16,Cc1ccc(S(=O)(=O)N2CCN(C(=O)N(C)C)C2C(C)C)cc1 (stereo not given),inactive
17,Cc1occc1C(=O)N1CCC2(CCCN(Cc3cccnc3)C2=O)C1 (stereo not given),"inconclusive: 31.6 µM [inhibitor, single point]"
18,CC(C)(CC(=O)O)CC(=O)N1C[C@@H]2C[C@H](C1)c1ccc(-c3cccc(C(F)(F)F)c3)c(=O)n1C2,active: 28.2 µM
19,Cc1ccc(N2C(=O)c3n[nH]c(C)c3C2c2ccc(O)cc2)cc1 (stereo not given),inactive
20,COc1ccc(-n2ccnc2CN2CCN(CC=C(C)C)C(CCO)C2)cc1 (stereo not given),inactive
21,CCOC(=O)c1ccc(Nc2cc(-c3ccccc3)nc(C)n2)cc1,"inconclusive: 31.6 µM [inhibitor, partial curve, poor fit]"
22,Cc1cc(C)cc(N(CC(=O)NCc2ccccc2Cl)S(=O)(=O)c2c(C)noc2C)c1,"inconclusive: 7.94 µM [inhibitor, partial curve, poor fit]"
